Screen size: about 310,000 compounds; about 2,200 (0.71%) showed an effect of 50% or more. Effects have a minus sign here. Some of the results follow.
Each compound was assayed against human ether-à-go-go-related gene (hERG) potassium channel (human, UniProt Q12809) (assay: primary screen, population patch clamp on CHO cells stably expressing hERG).
Chain of human ether-à-go-go-related gene (hERG) potassium channel (Q12809 whole entry, looked up): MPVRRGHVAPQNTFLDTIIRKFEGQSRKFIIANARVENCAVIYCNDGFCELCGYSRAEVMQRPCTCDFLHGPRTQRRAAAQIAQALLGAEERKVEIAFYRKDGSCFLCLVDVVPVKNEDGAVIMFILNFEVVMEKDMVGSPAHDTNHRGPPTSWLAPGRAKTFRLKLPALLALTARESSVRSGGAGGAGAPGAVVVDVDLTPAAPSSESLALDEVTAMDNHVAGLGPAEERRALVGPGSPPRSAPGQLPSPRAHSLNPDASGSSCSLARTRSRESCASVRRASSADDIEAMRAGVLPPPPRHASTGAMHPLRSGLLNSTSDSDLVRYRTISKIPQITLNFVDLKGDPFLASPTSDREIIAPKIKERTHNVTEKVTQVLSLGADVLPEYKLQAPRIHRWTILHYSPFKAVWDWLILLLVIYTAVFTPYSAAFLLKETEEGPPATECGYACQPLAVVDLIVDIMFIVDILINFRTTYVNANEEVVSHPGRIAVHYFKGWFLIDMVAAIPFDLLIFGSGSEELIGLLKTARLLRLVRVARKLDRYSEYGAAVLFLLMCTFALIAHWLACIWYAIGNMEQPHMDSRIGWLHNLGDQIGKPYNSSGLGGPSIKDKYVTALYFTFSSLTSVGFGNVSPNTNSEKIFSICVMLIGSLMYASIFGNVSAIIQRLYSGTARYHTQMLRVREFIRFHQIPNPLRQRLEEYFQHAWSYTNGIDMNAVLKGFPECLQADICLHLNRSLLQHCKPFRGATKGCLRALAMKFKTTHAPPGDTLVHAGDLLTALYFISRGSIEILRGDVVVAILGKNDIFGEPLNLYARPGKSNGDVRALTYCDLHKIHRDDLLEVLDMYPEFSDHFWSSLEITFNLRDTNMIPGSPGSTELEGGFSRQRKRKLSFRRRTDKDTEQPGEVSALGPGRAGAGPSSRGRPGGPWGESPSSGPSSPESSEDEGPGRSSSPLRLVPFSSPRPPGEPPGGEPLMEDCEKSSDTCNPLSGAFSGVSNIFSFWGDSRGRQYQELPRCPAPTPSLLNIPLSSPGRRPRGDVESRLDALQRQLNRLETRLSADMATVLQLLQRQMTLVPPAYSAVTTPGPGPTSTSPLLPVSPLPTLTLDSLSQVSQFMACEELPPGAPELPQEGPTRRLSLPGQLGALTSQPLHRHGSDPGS

Compound | hERG current change (%, negative = inhibition) at 1uM
Nc1cc(=O)[nH]c(=O)n1Cc1ccco1 | -0.744%
CCNc1nc(C(=O)O)nc(N2CCOCC2)n1 | 12.3%
O=C(N/N=C/c1cn(-c2ccccc2)nc1-c1ccccc1)c1ccco1 | 8.56%
Cc1nn(Cc2ccccc2Cl)c2sc(C(=O)OC3CCCC3=O)cc12 (stereo not shown) | -0.756%
CCN(CC)C(=O)C1CCCN(c2ncnc3c2cnn3-c2cccc(C)c2)C1 (stereo not shown) | 11.5%
Cc1ccc(Nc2nnc(SC3CCOC3=O)s2)cc1 (stereo not shown) | 13.8%
O=C(Nc1nc2ccccc2[nH]1)c1ccc(F)cc1 | 1.73%
CC(C)OCCCNC(=O)Cn1ccc2cc(S(=O)(=O)N3CCCCCC3)ccc21 | 7.02%
CCOC(=O)c1ccc(S(=O)(=O)N2CCC(N3CCCCC3)CC2)cc1 | -0.396%
Cc1ccc(SCC(=O)OC(C)C(=O)NCc2ccccc2)cc1 (stereo not shown) | -2%
CCOC(=O)C1(CCOc2ccccc2)CCN(Cc2cccc(OC)c2O)CC1 | -54.1%
Cc1csc(SCC(=O)Nc2c(C)n(C)n(-c3ccccc3)c2=O)n1 | 12.1%
Cc1cccc(NC(=O)C2CCCN2C(=O)Oc2ccccc2)c1 (stereo not shown) | 0.962%
Cc1ccc(CN2C(=O)C3CCCN3c3ncccc32)cc1 (stereo not shown) | 12.7%
Cc1ccc(N2C3=C(C(=O)CC(C)(C)C3)C(c3cn(C)nc3C)C3=C2CC(C)(C)CC3=O)cc1 | 7.22%
CCc1ccc(OC(=O)c2cncc(Br)c2)cc1 | 14.9%
O=C1CC(SC2=NCCS2)C(=O)N1c1ccc(Cl)cc1 (stereo not shown) | 0.889%
COc1ccc(NC(=S)N(CCN(C)C)C(C)c2ccco2)cc1 (stereo not shown) | -1.04%
CC(NC(=O)c1cncc(Br)c1)c1ccc(S(N)(=O)=O)cc1 (stereo not shown) | -2%
COc1cc(C(=O)N/N=C/c2ccc(OC(=O)c3cccc(C)c3)c(OC)c2)ccc1O | 9.86%
CCCCCC(=O)NNC1CC(=O)N(c2cccc(OCC)c2)C1=O (stereo not shown) | 10.2%
COC(=O)c1ccc(NC(=O)Cn2nnc3ccccc32)cc1 | 11.9%
CC(C)(C)C(=O)OCc1cn(-c2ccc(Cl)cc2)nn1 | 0.569%

Compound | hERG current change (%, negative = inhibition) at 1uM
CN(c1ccccc1)c1ncccn1 | 13.6%
O=[N+]([O-])c1ccc2[nH]c3c(c2c1)CCCC3 | 13.8%
Cc1ccc(NC(=O)C(=O)NCc2ccc(/C=N/NC(=O)c3c(C)nc4ccccn34)o2)cc1 | 10.4%
O=C1OC(c2ccc3c(c2)OCO3)=N/C1=C\c1ccc(C(=O)O)cc1 | 17.4%
COc1cc2c(cc1OC)C(C)N(C(=O)c1cc3c(s1)-c1ccccc1OC3)CC2 (stereo not shown) | 6.48%
Cc1cc2cc(CCNC(=O)C3c4ccccc4Oc4ccccc43)c(=O)[nH]c2cc1C | -1.73%
Cc1c(NC(=O)OCCNC(=O)Nc2ccccc2)sc(=S)n1C | 16%
Oc1c(C=NCc2ccccc2)sc2ccccc12 | 13.3%
CCC(C)(C(=O)NC1CCCCC1)N(Cc1ccco1)C(=O)c1ccccn1 (stereo not shown) | -2.32%
CNC(=O)c1sccc1S(=O)(=O)Cc1c(Cl)cccc1Cl | 3.02%
COc1ccccc1-c1cn(C(C)(C)C)nc1C | 10.2%
CC(=O)C1=C(O)C(=O)N(CCO)C1c1ccccc1 (stereo not shown) | 8.42%
O=C1c2ccccc2-c2nc3ncnn3c(-c3ccccc3Cl)c21 | 5.18%
CCOc1cc(-c2cc(-c3ccc(NC(C)=O)cc3)nc(N)c2C#N)ccc1O | 11.4%
Cc1ccc(Cc2nc(-c3cccnc3)no2)cc1 | 11.6%
COC(=O)c1ccc(C(=S)NCC2(N(C)C)CCCCC2)cc1 | 13%
COc1ccc(C2=NOC(C(=O)NCc3ccc(F)cc3)C2)cc1 (stereo not shown) | -8.9%
C=CCn1c(O)c(N=NC(=S)Nc2cccc(C)c2)c2ccccc21 | 2.21%
CC(=O)c1ccccc1OCC(O)Cn1ccnc1 (stereo not shown) | 16.6%
NS(=O)(=O)c1ccc(CCNC(=O)c2cc(-c3cc(Cl)ccc3O)n[nH]2)cc1 | 11.9%
COc1cc(CCC(=O)N2CCN(S(=O)(=O)c3ccc(C)cc3)CC2)cc(OC)c1OC | -3.92%
CC(C)S(=O)(=O)C/C(N)=N/OC(=O)c1cc(Cl)cc(Cl)c1 | 16.4%
CC(=O)c1ccc(N2CCN(CC(O)COC(c3ccccc3)c3ccccc3C)CC2)cc1 (stereo not shown) | 9%

— article PMC4336329 (PLoS ONE, 2015)
